Publication PMC11624280
These are yes or no findings as the source states them, for the method shown. Binding seen in cells or lysates may run through a third protein. Some results given as binding are weak or reduced against the parent protein; the word gives no strength. Sequences can lack the tags named with a protein. Each block holds one molecule with its values, some of them ahead of it.

Chains of the proteins cited; added tags and fusions are not shown.
UniProt Q09472: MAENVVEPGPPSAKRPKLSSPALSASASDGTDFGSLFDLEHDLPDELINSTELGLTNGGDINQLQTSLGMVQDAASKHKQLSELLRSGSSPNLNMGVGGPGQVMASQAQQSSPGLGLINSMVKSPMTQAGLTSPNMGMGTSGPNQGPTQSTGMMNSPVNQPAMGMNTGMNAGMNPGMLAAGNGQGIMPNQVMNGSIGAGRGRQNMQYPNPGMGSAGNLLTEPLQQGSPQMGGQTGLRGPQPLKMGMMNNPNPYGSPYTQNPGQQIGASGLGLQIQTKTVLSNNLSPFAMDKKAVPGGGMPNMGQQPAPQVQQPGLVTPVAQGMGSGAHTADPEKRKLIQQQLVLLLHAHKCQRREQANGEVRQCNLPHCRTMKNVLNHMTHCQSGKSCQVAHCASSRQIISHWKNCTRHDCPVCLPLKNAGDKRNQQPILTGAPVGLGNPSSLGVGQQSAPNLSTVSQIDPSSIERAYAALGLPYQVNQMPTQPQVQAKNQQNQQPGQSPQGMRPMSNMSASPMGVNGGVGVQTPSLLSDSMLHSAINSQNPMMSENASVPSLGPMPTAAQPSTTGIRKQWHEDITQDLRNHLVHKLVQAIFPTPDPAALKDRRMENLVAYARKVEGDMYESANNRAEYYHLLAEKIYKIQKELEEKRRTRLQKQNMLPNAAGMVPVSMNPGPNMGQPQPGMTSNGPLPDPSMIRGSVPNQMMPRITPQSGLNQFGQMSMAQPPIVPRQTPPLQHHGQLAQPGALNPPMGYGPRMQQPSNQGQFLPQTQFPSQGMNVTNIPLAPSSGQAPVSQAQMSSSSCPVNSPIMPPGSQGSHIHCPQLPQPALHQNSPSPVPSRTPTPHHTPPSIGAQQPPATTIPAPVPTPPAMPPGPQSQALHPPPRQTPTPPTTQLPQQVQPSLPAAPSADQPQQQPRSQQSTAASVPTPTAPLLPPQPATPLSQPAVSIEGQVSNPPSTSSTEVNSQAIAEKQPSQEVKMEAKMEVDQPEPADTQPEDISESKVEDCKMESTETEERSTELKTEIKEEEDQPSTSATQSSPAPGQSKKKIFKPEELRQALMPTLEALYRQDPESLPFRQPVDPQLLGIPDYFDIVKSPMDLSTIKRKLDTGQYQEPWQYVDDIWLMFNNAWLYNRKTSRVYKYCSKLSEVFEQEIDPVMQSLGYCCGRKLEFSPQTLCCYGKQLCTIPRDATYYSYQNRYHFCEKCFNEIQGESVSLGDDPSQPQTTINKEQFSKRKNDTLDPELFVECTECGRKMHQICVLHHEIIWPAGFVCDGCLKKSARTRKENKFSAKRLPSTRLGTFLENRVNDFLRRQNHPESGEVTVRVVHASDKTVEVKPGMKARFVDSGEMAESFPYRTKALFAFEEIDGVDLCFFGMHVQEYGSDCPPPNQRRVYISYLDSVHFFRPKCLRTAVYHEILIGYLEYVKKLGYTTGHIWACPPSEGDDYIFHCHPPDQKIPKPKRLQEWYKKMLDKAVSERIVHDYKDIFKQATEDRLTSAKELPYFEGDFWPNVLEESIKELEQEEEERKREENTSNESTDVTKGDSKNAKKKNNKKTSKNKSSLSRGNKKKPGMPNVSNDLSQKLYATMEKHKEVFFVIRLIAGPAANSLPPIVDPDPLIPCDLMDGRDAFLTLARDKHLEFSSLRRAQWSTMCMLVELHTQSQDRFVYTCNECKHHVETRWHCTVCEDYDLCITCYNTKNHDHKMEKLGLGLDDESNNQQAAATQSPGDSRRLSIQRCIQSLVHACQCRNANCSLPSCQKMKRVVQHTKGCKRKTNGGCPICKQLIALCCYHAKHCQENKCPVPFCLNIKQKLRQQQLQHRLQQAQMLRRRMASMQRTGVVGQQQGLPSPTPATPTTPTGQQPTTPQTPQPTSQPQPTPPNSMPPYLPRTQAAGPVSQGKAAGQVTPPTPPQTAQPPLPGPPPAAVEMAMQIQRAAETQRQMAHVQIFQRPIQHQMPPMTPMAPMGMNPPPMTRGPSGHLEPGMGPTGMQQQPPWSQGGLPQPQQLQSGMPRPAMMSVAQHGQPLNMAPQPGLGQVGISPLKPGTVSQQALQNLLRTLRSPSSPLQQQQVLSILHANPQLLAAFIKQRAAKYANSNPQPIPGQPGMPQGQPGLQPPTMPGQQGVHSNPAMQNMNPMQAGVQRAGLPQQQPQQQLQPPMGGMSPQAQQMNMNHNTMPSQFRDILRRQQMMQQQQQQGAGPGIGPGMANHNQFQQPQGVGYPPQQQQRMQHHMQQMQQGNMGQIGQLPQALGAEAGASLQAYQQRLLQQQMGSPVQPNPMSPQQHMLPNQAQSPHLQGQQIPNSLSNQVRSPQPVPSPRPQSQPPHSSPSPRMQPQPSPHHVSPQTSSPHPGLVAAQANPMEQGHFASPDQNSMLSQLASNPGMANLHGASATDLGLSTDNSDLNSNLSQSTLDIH
UniProt Q8N6T7: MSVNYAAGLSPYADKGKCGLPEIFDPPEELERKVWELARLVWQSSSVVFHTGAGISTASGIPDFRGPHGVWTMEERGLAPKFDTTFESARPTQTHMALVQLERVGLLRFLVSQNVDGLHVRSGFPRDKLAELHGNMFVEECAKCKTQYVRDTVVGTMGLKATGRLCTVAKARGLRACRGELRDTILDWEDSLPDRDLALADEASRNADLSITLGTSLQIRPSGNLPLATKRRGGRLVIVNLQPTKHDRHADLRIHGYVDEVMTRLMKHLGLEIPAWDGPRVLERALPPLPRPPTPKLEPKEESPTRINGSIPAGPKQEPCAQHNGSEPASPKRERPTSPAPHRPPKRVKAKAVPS
UniProt Q9NRC8: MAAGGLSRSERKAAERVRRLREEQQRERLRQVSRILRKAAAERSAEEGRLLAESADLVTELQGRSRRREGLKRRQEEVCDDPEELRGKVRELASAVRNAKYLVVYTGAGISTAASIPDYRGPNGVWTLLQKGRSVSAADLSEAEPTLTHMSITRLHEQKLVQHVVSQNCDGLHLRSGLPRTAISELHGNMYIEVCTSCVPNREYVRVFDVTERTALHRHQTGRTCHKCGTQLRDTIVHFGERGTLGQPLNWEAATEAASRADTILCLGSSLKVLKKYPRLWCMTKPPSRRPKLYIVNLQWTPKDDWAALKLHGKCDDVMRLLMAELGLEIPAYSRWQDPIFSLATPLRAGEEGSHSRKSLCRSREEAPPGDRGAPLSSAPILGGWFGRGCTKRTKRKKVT
UniProt Q5SQI0: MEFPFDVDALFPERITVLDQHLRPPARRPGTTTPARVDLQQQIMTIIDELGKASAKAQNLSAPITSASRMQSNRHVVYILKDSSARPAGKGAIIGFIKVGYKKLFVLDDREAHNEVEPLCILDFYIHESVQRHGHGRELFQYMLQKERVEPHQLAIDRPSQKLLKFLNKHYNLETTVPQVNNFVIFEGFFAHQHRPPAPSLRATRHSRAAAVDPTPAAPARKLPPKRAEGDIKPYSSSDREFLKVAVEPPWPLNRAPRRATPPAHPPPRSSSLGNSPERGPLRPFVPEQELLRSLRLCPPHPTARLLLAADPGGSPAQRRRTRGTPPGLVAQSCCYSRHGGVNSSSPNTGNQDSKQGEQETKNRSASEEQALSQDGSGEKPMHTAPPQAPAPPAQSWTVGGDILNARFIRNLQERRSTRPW

Target: T1, YTHDF1 (endogenous, HEK-293T cells) (human (endogenous in HEK-293T)) (UniProt Q9BYJ9)
T1 sequence: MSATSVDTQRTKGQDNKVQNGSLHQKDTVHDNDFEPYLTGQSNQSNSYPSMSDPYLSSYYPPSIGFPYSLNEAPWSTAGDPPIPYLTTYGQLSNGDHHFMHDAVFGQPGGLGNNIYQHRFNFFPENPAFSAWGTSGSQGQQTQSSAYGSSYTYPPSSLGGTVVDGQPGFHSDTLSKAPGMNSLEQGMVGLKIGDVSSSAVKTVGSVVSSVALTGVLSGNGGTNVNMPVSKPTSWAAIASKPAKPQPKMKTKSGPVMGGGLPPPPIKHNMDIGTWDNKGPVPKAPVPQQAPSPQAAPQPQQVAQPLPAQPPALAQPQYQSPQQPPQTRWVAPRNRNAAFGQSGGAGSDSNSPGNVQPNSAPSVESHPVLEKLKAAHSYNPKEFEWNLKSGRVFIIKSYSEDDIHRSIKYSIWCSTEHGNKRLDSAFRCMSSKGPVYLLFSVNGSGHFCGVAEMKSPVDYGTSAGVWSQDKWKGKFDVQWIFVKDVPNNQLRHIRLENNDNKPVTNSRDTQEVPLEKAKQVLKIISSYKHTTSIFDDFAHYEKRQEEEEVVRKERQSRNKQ
Test: co-IP

Molecule: Myc-P300 (from UniProt Q09472 1-2414) (enzyme)
binding: no binding

Molecule: Myc-Sirt6 (from UniProt Q8N6T7 1-355) (enzyme)
binding: binds

Molecule: Myc-Sirt7 (from UniProt Q9NRC8 1-400) (enzyme)
binding: binds

B2: Myc-Sirt2 (enzyme, UniProt Q8IXJ6 1-389)
chain: MAEPDPSHPLETQAGKVQEAQDSDSDSEGGAAGGEADMDFLRNLFSQTLSLGSQKERLLDELTLEGVARYMQSERCRRVICLVGAGISTSAGIPDFRSPSTGLYDNLEKYHLPYPEAIFEISYFKKHPEPFFALAKELYPGQFKPTICHYFMRLLKDKGLLLRCYTQNIDTLERIAGLEQEDLVEAHGTFYTSHCVSASCRHEYPLSWMKEKIFSEVTPKCEDCQSLVKPDIVFFGESLPARFFSCMQSDFLKVDLLLVMGTSLQVQPFASLISKAPLSTPRLLINKEKAGQSDPFLGMIMGLGGGMDFDSKKAYRDVAWLGECDQGCLALAELLGWKKELEDLVRREHASIDAQSGAGVPNPSTSASPKKSPPPAKDEARTTEREKPQ
binding: binds

Further lines, results first:

binding: no binding
Molecule: Myc-ATAT1 (from UniProt Q5SQI0 1-421) (enzyme)

binding: binds
B1: Myc-Sirt4 (enzyme, UniProt Q9Y6E7 29-314)
chain: IGLFVPASPPLDPEKVKELQRFITLSKRLLVMTGAGISTESGIPDYRSEKVGLYARTDRRPIQHGDFVRSAPIRQRYWARNFVGWPQFSSHQPNPAHWALSTWEKLGKLYWLVTQNVDALHTKAGSRRLTELHGCMDRVLCLDCGEQTPRGVLQERFQVLNPTWSAEAHGLAPDGDVFLSEEQVRSFQVPTCVQCGGHLKPDVVFFGDTVNPDKVDFVHKRVKEADSLLVVGSSLQVYSGYRFILTAWEKKLPIAILNIGPTRSDDLACLKLNSRCGELLPLIDPC
